According to the supplement of paper PMC10126150:
Values marked as one replicate rest on one cluster of the flow cell; about a third of the high ones do not repeat.

System: ATP
Assay: switch fluorescence ratio, 500 uM ATP over buffer (Cy3 cluster intensity, sum of 5 cycles each) (fold (ratio)); higher = stronger signal-on switching upon ATP binding; sequences stand for … in TCGTCGGCAGCGTCAGATGTGTATAAGAGACAGTTTTTTTTTTTTTTTTTTTTTTTTT…TC
Conditions: aptamer strand: ATP DNA aptamer (quencher-CACCTGGGGGAGTATTGCGGAGGAAGG + anchor), 100 nM annealed; ATP concentration: 500 uM; one replicate
Procedure, shortened: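 Cy3-labelled switching-strand clusters on a modified Illumina MiSeq flow-cell were annealed to 100 nM quencher-labelled ATP aptamer and imaged first in selection buffer, then after 15 min with 500 uM ATP at 22 °C. NaOH stripping and re-annealing separated each of five buffer/ATP cycles, and clusters outside 100-1000 RFU were excluded. The fluorescence ratio sums target-cycle Cy3 intensity over buffer-cycle Cy3 intensity per cluster and averages it per switch-domain sequence.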
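Note: ATP exposure 15 min at 22 °C before imaging.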

CACCGCTTCT showed a switch fluorescence ratio of 1.74.
TGCTTTGCAG gave a switch fluorescence ratio of 0.978.
Work on TCTGATATCT yielded a switch fluorescence ratio of 0.987.
Sequence TCTAGTAAGA has a switch fluorescence ratio of 0.955.
Work on AGGCTTTTTA yielded a switch fluorescence ratio of 0.984.
Work on CGCGTGATGA yielded a switch fluorescence ratio of 0.959.
Sequence AGAAACATGC has a switch fluorescence ratio of 1.06.
TCATTGCGGG was tested, and the switch fluorescence ratio was 1.
TTCAGGCGGG showed a switch fluorescence ratio of 0.988.
Work on GTAACCGGGG yielded a switch fluorescence ratio of 1.02.
GACATTAGGT showed a switch fluorescence ratio of 1.
For AGGTGCGAGC, the switch fluorescence ratio was 0.954.
TGCCTAGAGT showed a switch fluorescence ratio of 1.
TGTGACAGGT was tested, and the switch fluorescence ratio was 1.02.
Work on ATCATGTCGA yielded a switch fluorescence ratio of 1.01.
CTGGACAGTC showed a switch fluorescence ratio of 1.05.
With TTAGGCCGT the switch fluorescence ratio was 1.02.
With CGTGACATCG the switch fluorescence ratio was 0.895.
In the case of GTCTTAACTG, the switch fluorescence ratio is reported as 1.1.
Work on CGAATCTCTG yielded a switch fluorescence ratio of 0.96.
In the case of CGCAGTCGCG, the switch fluorescence ratio is reported as 1.04.
ATAATCCACC gave a switch fluorescence ratio of 1.06.
CGGTAGGGCT was tested, and the switch fluorescence ratio was 0.961.
In the case of CGCCATAGT, the switch fluorescence ratio is reported as 1.35.
GTCAACTGCA showed a switch fluorescence ratio of 1.02.
Work on ATAGTTTCC yielded a switch fluorescence ratio of 1.03.
AGTCATCTTC gave a switch fluorescence ratio of 0.992.
CCTAATCTC gave a switch fluorescence ratio of 0.982.
With GTTGCTAAAC the switch fluorescence ratio was 1.
CGTTGGATCG gave a switch fluorescence ratio of 1.07.
TACAGTCGCT showed a switch fluorescence ratio of 1.07.
With AAGTTGTACT the switch fluorescence ratio was 0.971.
Work on CAGTAATCAG yielded a switch fluorescence ratio of 1.01.
GCATGTGTAA showed a switch fluorescence ratio of 1.01.
For CACTATGAGC, the switch fluorescence ratio was 0.973.
CATCTGGCT was tested, and the switch fluorescence ratio was 1.01.
For CGGCCTAATA, the switch fluorescence ratio was 0.99.
CATAGCTCTC was tested, and the switch fluorescence ratio was 1.14.
TCCAATGGGA gave a switch fluorescence ratio of 1.01.
AGCGCAACAT gave a switch fluorescence ratio of 1.47.
AAGGCCACAC showed a switch fluorescence ratio of 1.07.
With CGTCATAAAT the switch fluorescence ratio was 1.01.
For ACGCCGTAGA, the switch fluorescence ratio was 1.06.
With TAATTGGCCG the switch fluorescence ratio was 0.899.
For TCTATAGGCA, the switch fluorescence ratio was 0.984.
In the case of ATAAAACTCT, the switch fluorescence ratio is reported as 1.15.
For AAGGTGAGCT, the switch fluorescence ratio was 1.
In the case of CTAAGCCCGT, the switch fluorescence ratio is reported as 1.
CCTTCGGCAG showed a switch fluorescence ratio of 4.11.
AATAGGTTCT was tested, and the switch fluorescence ratio was 0.988.
AGATGGAC gave a switch fluorescence ratio of 1.02.
CGATGAAGCA showed a switch fluorescence ratio of 0.952.
For CGTGAATTCA, the switch fluorescence ratio was 1.04.
GGAGTGTATC gave a switch fluorescence ratio of 1.03.
With CAGGGTTTGT the switch fluorescence ratio was 0.992.
Work on GTACATATTG yielded a switch fluorescence ratio of 0.962.
AAGATGGGG was tested, and the switch fluorescence ratio was 1.03.
Work on GGTGGATCGA yielded a switch fluorescence ratio of 1.13.
Work on AACACAGACG yielded a switch fluorescence ratio of 1.15.
Work on CGTGATTATG yielded a switch fluorescence ratio of 1.05.
Work on ACAAGATATG yielded a switch fluorescence ratio of 1.02.
In the case of TGCTAAGTCC, the switch fluorescence ratio is reported as 1.23.
GACAGCATGC showed a switch fluorescence ratio of 1.24.
For CTTGCCTCGG, the switch fluorescence ratio was 1.02.
ACACGTCTTC showed a switch fluorescence ratio of 1.02.
In the case of TACGGTTCT, the switch fluorescence ratio is reported as 1.01.
In the case of ATGGGGGTCT, the switch fluorescence ratio is reported as 0.967.
Work on ACCTCAAAGT yielded a switch fluorescence ratio of 1.02.
CTAACGAGAG showed a switch fluorescence ratio of 1.04.
Sequence TTTTCGGCGG has a switch fluorescence ratio of 1.02.
GCTAAGAGGT showed a switch fluorescence ratio of 1.01.
Work on TTAGCCTTAG yielded a switch fluorescence ratio of 1.07.
For TACTAGTCCT, the switch fluorescence ratio was 1.02.
GAGTTAAAC was tested, and the switch fluorescence ratio was 1.05.
In the case of GGAAGTGCAA, the switch fluorescence ratio is reported as 1.03.
Work on GCAAGTTGGA yielded a switch fluorescence ratio of 1.05.
ACACTGAAGA showed a switch fluorescence ratio of 0.982.
Work on GTTTTCGTTA yielded a switch fluorescence ratio of 1.01.
For TTCACATATT, the switch fluorescence ratio was 1.03.
For TAACTTACAG, the switch fluorescence ratio was 1.14.
With AACTCAAGCA the switch fluorescence ratio was 1.12.
With ATATTCCATT the switch fluorescence ratio was 0.974.
In the case of ATGGCGTCGG, the switch fluorescence ratio is reported as 0.973.
Sequence AAATGTGCTA has a switch fluorescence ratio of 1.01.
GAGGGCTGGC gave a switch fluorescence ratio of 1.06.
Sequence GTGATACCGA has a switch fluorescence ratio of 1.08.
CCTGTTCGGA showed a switch fluorescence ratio of 1.
TGCGCCAATT was tested, and the switch fluorescence ratio was 0.925.
TAGCTAATAG was tested, and the switch fluorescence ratio was 1.28.
For AGTCGCTCTG, the switch fluorescence ratio was 0.936.
AGGCCGTTTT showed a switch fluorescence ratio of 0.99.
In the case of CAATGATGGC, the switch fluorescence ratio is reported as 0.985.
GCTTTGTACC was tested, and the switch fluorescence ratio was 1.03.
For GCAAATCACG, the switch fluorescence ratio was 1.04.
TCGACATTAC gave a switch fluorescence ratio of 3.86.
CAGTTGCTTG gave a switch fluorescence ratio of 0.996.
AATCACGTAT gave a switch fluorescence ratio of 1.21.
Sequence GGGCGGTATT has a switch fluorescence ratio of 0.969.
GCCGTTTACT was tested, and the switch fluorescence ratio was 1.04.
Work on GGTTTGGTGT yielded a switch fluorescence ratio of 1.04.
For TGTGAGTGTC, the switch fluorescence ratio was 1.05.
AGAAACTAAA gave a switch fluorescence ratio of 0.952.
AACCATGCCA showed a switch fluorescence ratio of 0.991.
In the case of TTTATACTTG, the switch fluorescence ratio is reported as 0.988.
Work on ATCAAACCTC yielded a switch fluorescence ratio of 1.12.
With ACGCAGTGC the switch fluorescence ratio was 1.3.
For CGATCTTTGC, the switch fluorescence ratio was 0.991.
TTATCAGCGA gave a switch fluorescence ratio of 1.05.
CATATAAGAT was tested, and the switch fluorescence ratio was 1.03.
GGTCCAGGTG was tested, and the switch fluorescence ratio was 1.19.
Sequence TAAAACTATG has a switch fluorescence ratio of 1.01.
AAAAGGCCTC was tested, and the switch fluorescence ratio was 0.98.
CAAGGCCCAC showed a switch fluorescence ratio of 1.06.
Work on TAAGATTTT yielded a switch fluorescence ratio of 0.988.
CTCGTCAGTT gave a switch fluorescence ratio of 0.99.
Work on GGCATTACAC yielded a switch fluorescence ratio of 1.12.
GTGTCACTAT gave a switch fluorescence ratio of 1.02.
In the case of TTGTGATATG, the switch fluorescence ratio is reported as 0.997.
In the case of TCATATCATG, the switch fluorescence ratio is reported as 0.973.
For AATTGTCCAG, the switch fluorescence ratio was 0.971.
Sequence ATATTTCGG has a switch fluorescence ratio of 0.986.
In the case of TCACAACTGG, the switch fluorescence ratio is reported as 1.02.
For ATTATGCCCC, the switch fluorescence ratio was 0.991.
With CGATACACGA the switch fluorescence ratio was 1.09.
ACGTTAATAG gave a switch fluorescence ratio of 1.24.
Work on TGACTAGCCT yielded a switch fluorescence ratio of 1.07.
For GAGTCTTACT, the switch fluorescence ratio was 1.
For TAACTCTCCT, the switch fluorescence ratio was 1.02.
GAGGCTTGGA showed a switch fluorescence ratio of 1.
In the case of TTCAGACGG, the switch fluorescence ratio is reported as 1.01.
Sequence AGGTGGTTGG has a switch fluorescence ratio of 0.981.
GTGCGATGGT was tested, and the switch fluorescence ratio was 1.05.
In the case of CCACGTCTGG, the switch fluorescence ratio is reported as 0.992.
ATACCGTGT was tested, and the switch fluorescence ratio was 0.997.
GAGAGTCCTG gave a switch fluorescence ratio of 1.
Sequence CCGGGACTAC has a switch fluorescence ratio of 3.9.
Sequence AACGGCTTAA has a switch fluorescence ratio of 1.01.
With AACGAGGTCT the switch fluorescence ratio was 1.03.
In the case of AGTGTGTTAC, the switch fluorescence ratio is reported as 1.02.
Work on CTATTAAGTC yielded a switch fluorescence ratio of 0.979.
In the case of GGCTCTCTTA, the switch fluorescence ratio is reported as 0.988.
Work on ATAGCATTCA yielded a switch fluorescence ratio of 0.969.
GGGTGTTCAA gave a switch fluorescence ratio of 1.04.
TCAAGGATCA gave a switch fluorescence ratio of 0.969.
TGGTTGCGCG showed a switch fluorescence ratio of 0.993.
In the case of AAGGTTTAGC, the switch fluorescence ratio is reported as 0.973.
GTAACCGTCG gave a switch fluorescence ratio of 1.2.
For AAATCTGGT, the switch fluorescence ratio was 0.953.
For TAAACAAGAT, the switch fluorescence ratio was 1.39.
TCTGGTATGT showed a switch fluorescence ratio of 1.05.
TCTCAGCACT showed a switch fluorescence ratio of 2.11.
For CCGTACTTGC, the switch fluorescence ratio was 1.69.
Sequence AAGTTTTAAT has a switch fluorescence ratio of 1.02.
With GCCTCGGTT the switch fluorescence ratio was 1.
Sequence TGCTACATGG has a switch fluorescence ratio of 0.999.
Work on TCCTGCTGGG yielded a switch fluorescence ratio of 0.979.
GGGCCATCTT gave a switch fluorescence ratio of 1.03.
TTTTGTTCTC was tested, and the switch fluorescence ratio was 0.965.
For GGCTTAGTGA, the switch fluorescence ratio was 1.02.
CTACGCCGTC showed a switch fluorescence ratio of 1.11.
In the case of TACCCGATCT, the switch fluorescence ratio is reported as 1.06.
Work on GGATGAGAAG yielded a switch fluorescence ratio of 0.981.
With AAATCCGCGG the switch fluorescence ratio was 1.11.
In the case of TGGTGATTGA, the switch fluorescence ratio is reported as 0.988.
AGTAGCTATA showed a switch fluorescence ratio of 1.12.
For CCCGATTTAT, the switch fluorescence ratio was 1.08.
CTATTCTAAG gave a switch fluorescence ratio of 0.987.
TATTAGGGCC showed a switch fluorescence ratio of 0.969.
With GGCAGTTATT the switch fluorescence ratio was 1.02.
TGTGAAAG was tested, and the switch fluorescence ratio was 0.982.
Work on AGGCCCGACT yielded a switch fluorescence ratio of 0.977.
TTGCTAATTG gave a switch fluorescence ratio of 0.981.
Sequence CCCTCTAAGG has a switch fluorescence ratio of 1.06.
CACGTATATG gave a switch fluorescence ratio of 1.13.
TGCAGACCGT showed a switch fluorescence ratio of 1.
In the case of ATTGGCTGA, the switch fluorescence ratio is reported as 0.962.
For GTGGGGACAA, the switch fluorescence ratio was 0.995.
GAGGTGGAAG was tested, and the switch fluorescence ratio was 1.01.
Work on TTGGTTTTAC yielded a switch fluorescence ratio of 1.24.
With GGGACCACTC the switch fluorescence ratio was 0.987.
In the case of AGAGGGGCA, the switch fluorescence ratio is reported as 0.981.
GCGGCGGGTG showed a switch fluorescence ratio of 1.08.
AACAGAAGA gave a switch fluorescence ratio of 0.958.
TTGTACCATG gave a switch fluorescence ratio of 1.01.
Work on ATGGTAATGC yielded a switch fluorescence ratio of 1.17.
GGATTTTTAA gave a switch fluorescence ratio of 0.987.
CAGATTCCAG was tested, and the switch fluorescence ratio was 1.02.
In the case of GAATGTGTCA, the switch fluorescence ratio is reported as 1.
Sequence ACCACTGGGA has a switch fluorescence ratio of 1.04.
AGGGGCACAG was tested, and the switch fluorescence ratio was 0.967.
TACATGTTGC showed a switch fluorescence ratio of 0.965.
Sequence TGGCGGGACG has a switch fluorescence ratio of 0.913.
Work on ATGGTTGGAG yielded a switch fluorescence ratio of 0.967.
TTTATGCTA gave a switch fluorescence ratio of 0.992.
Sequence TACATCTACG has a switch fluorescence ratio of 1.28.
Work on GGCCAAGATT yielded a switch fluorescence ratio of 0.987.
With AATAGTTCAC the switch fluorescence ratio was 0.959.
ACATCTAGTC showed a switch fluorescence ratio of 1.01.
GACCGACGTC gave a switch fluorescence ratio of 1.25.
With GGTTGCACAT the switch fluorescence ratio was 0.978.
For TGAGTTGGG, the switch fluorescence ratio was 0.975.
